The values that follow come from PubChem BioAssay (NCI).

Several values for one entry are separate records, joined by “and”; a condition that tells them apart may be missing. Equal entries are not always repeated.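 These data come from cells grown in 96-well plates and exposed to compound for 48 hours at five concentrations. At the GI50, growth is halved. TGI: concentration producing complete growth inhibition.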 Where only a bound is given, the exact number is not on record here.

The test system of this test is NCI-H322M lung. The test can be described thus: growth of human tumour cells (NCI), 48 h.
`S=C(N/N=C\C(=N/NC(=S)N1CCCCC1)c1ccccc1)N1CCCCC1` returned a TGI of 3.85 µM.
The same measure, in the same setting: to `Cc1cc(C)c(S(=O)(=O)N(CCCN)OCCCON(CCCN)S(=O)(=O)c2c(C)cc(C)cc2C)c(C)c1` belongs 4.34 µM.
In turn, `COC1OC(CO)C(O)C1N` (stereo unspecified) gave a TGI of over 100 µM.
On to `Cc1nc2sccn2c1-c1csc(Nc2cccc(Cl)c2C)n1`, for which the GI50 is 11.2 µM and the TGI worked out at 63.7 µM.
For `Cc1cc2c(cc1C)N(C(=O)CCl)CCN2C(=O)CCl`, in that order: 1.88 µM and 3.6 µM.
In the case of `C=CC(=O)Nc1cc2c(Nc3ccc(F)c(Cl)c3)ncnc2cc1OCCCN1CCOCC1`, the GI50 is < 0.0109 µM and 0.0239 µM; the TGI is 3.3 µM and > 6.03 µM.
As for `Cc1cc(S(=O)(=O)NC#N)c(S/C(=N\Nc2ccc([N+](=O)[O-])cc2)c2ccc(Cl)cc2)cc1Cl`, the GI50 is 22.5 µM and the TGI was over 100 µM.
For `O=C1C=CC(=O)c2c(O)c(N3CCC[C@H]3CO)c(Cl)c(O)c21`, the TGI was over 10 µM.
`COc1ccc(/C=C\c2cc(OC)c(O[Si](C)(C)C(C)(C)C)c(OC)c2)cc1` displayed a TGI of over 100 µM.
Regarding `O=C1NC(=S)S/C1=C(/C=C(\CC(=O)c1ccccc1)c1ccc(Cl)cc1)c1ccccc1`, the GI50 was 34.6 µM and the TGI is over 100 µM.
On to `COC(=O)C1C(C(=O)OC)C2(OC(c3ccc(Cl)cc3)=CC2=O)C12OC(c1ccc(Cl)cc1)=CC2=O` (stereo unspecified), for which the TGI was over 100 µM.
Same read-out and setting: the same measure for `COC(=O)[C@@H]1CCCCC[C@H]2C(CO)=C(C)C(=O)C12` (stereo partly specified): over 100 µM; for `COc1ccccc1C1Nn2c(nc3ccccc3c2=O)N1c1ccc(C)cc1` (stereo unspecified): 35.2 µM.
Turning to `COc1ccc(C2C3=C(COC3=O)Oc3cc4c(cc32)OCO4)c(OC)c1` (stereo unspecified), the TGI was over 100 µM.
The same measure, in the same setting: the same measure for `COC1C2C=CC(C2)[C@H]1[N+](=O)[O-]` (stereo partly specified): over 100 µM; for `O=c1cccc(C2CC(CO)C3CCCCN3C2)[nH]1` (stereo unspecified): over 100 µM.
Same read-out and setting: to `CCOC(=O)/C=C1\CCCC12OCCO2` belongs over 100 µM; to `O=c1cc(-c2ccncc2)[nH]c2cc3c(cc12)OCO3`, over 100 µM.
For `CCc1c(CNc2ccc(C(=O)NC(CC(=O)O)C(=O)O)cc2)ccc2nc(N)nc(N)c12` (stereo unspecified), the GI50 is 0.108 µM and the TGI is over 1000 µM.
For `O=C(O)C1CCCCC1C(=O)O.[NH-]C1CCC1.[NH2-].[Pt+2]` (stereo unspecified), in that order: over 100 µM and over 100 µM.
`C[C@]12CCCC(=O)C1(O)C[C@H](C(=O)O)CC2` (stereo partly specified) returned a TGI of over 100 µM.
Still for that read-out and setting: to `CCP(=O)(OC)C1=CCN(C(=O)OCC[Si](C)(C)C)CC1` (stereo unspecified) belongs over 100 µM.
The compound `COC(=O)[C@]12CCC(C)[C@H](C)[C@H]1C1=CCC3[C@@]4(C)CC[C@H](OC(C)=O)C(C)(C)C4CC[C@@]3(C)C1(C)C(O)C2` (stereo partly specified) returned a TGI of over 100 µM.
For the compound `CN(C)CCCNC(=O)c1ccc2c(c1)oc1cc3ccccc3c(=O)n12`, the GI50 was 21 µM and the TGI was 41.2 µM.
`Cc1cc2c(O)c(c1)CN(CC(=O)O)Cc1cc(C)cc(c1O)CN(CC(=O)O)Cc1cc(C)cc(c1O)CN(CC(=O)O)C2` gave a TGI of over 100 µM.
The same measure, in the same setting: the same measure for `O=S(=O)(O)c1ccc(N=Nc2ccc(N=Nc3ccc(/C=C/c4ccc(N=[N+]([O-])c5ccc(/C=C/c6ccc(N=Nc7ccc(N=Nc8ccc(S(=O)(=O)O)cc8)cc7)cc6S(=O)(=O)O)c(S(=O)(=O)O)c5)cc4S(=O)(=O)O)c(S(=O)(=O)O)c3)cc2)cc1`: over 100 µM.
As for `Cc1cc2c(cc1Cl)SC1=NN(C)C(N(C)C)N1S2(=O)=O` (stereo unspecified), the GI50 is over 100 µM and the TGI is over 100 µM.
`Cc1cc(C)c2c(=O)cc(-c3cccc(F)c3)[nH]c2n1` showed a TGI of over 100 µM.
On the same count and under the same terms, the same measure for `COc1ccc(N2C(=O)[C@H]3CC(C)c4c([nH]c5ccccc45)[C@H]3C2=O)cc1` (stereo partly specified): 70.3 µM.
The same measure, in the same setting: the same measure for `CSc1nc(NC(C)C)c2c(n1)Sc1nc3ccccc3n1N=C2`: 19.1 µM.
`C/C=C1\NC(=O)[C@H]2CSSCCC=C[C@H](CC(=O)N[C@H](C(C)C)C(=O)N2)OC(=O)[C@H](C(C)C)NC1=O`: the GI50 was under 0.01 µM.
The compound `O=C1N=C2SC(=S)NC(=S)N2NC12c1ccccc1-c1ccccc12` returned a TGI of over 10 µM.
